From PubChem BioAssay AID1240 (Sanford-Burnham Center for Chemical Genomics, 2008)
Out of some 50,000 compounds screened, about 800 (1.6%) showed an effect of 50% or more. The list shows a part of the results.

Target: Bcl-2-like protein 10 (Homo sapiens) (UniProt Q9HD36)
Test: Phenotype converters, Bcl-B/TR3 peptide binding displacement, primary biochemical FP (AID 1240);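 further: 0% = Bcl-B with tracer peptide and DMSO and 100% = tracer peptide lacking Bcl-B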
Settings: GST-Bcl-B / FITC-TR3 peptide fluorescence polarization; stronger effect = higher value; compound at 3.75 mg/L

UniProt Q9HD36, sequence (Q9HD36 whole entry, looked up): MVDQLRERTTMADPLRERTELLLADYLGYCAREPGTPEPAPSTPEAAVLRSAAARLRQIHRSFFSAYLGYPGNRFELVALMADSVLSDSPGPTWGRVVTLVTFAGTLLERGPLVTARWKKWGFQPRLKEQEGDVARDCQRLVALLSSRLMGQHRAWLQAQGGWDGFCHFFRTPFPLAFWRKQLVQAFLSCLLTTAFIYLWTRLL

Point of comparison: CCN(CC)S(=O)(=O)c1ccc(NC(C)=O)cc1, displacement -5.4%. Against it:
- CCn1c2c(c3cc(Br)ccc31)CCCC2O (configuration not stated) — higher, 10.6%
- CCN(CC)c1ccc(/C=C2\C(=O)NC(=S)N(c3cccc(Br)c3)C2=O)o1 — higher, 4.2%
- c1ccc2c(c1)NC1CCCCC1C1(CCCCC1)N2 (configuration not stated) — higher, 4.5%
- CCN(CC)c1ccc(/C=C2/C(=O)NC(=O)N(c3ccccc3)C2=O)cc1 — higher, -1.2%
- Cc1ccc(/C(O)=C2\C(=O)C(=O)N(c3nccs3)C2c2cccc(Br)c2)cc1 (configuration not stated) — higher, 29.5%
- Cc1c(Cl)cccc1NC(=O)/C(C#N)=C/c1ccc(C(=O)O)cc1 — higher, -0.6%
- O=C1NC(=O)N(c2ccccc2)C(=O)/C1=C\c1cccc([N+](=O)[O-])c1 — higher, 7.3%
- CCOC(=O)c1c(NC(=O)CN2C(=O)c3cccc4cccc(c34)C2=O)sc2c1CCCC2 — higher, 1.6%
- CCOc1ccc(N(CC(=O)N2CCOCC2)S(=O)(=O)c2ccc(Cl)cc2)cc1 — higher, 10.7%
- COC(=O)c1ccccc1NC(=O)COc1ccc2ccccc2c1 — higher, 3.2%
- COc1cc(/C=N/n2cnnc2)c([N+](=O)[O-])cc1OCCC(C)C — higher, 9.6%
- COC(=O)c1ccc(C(=O)OC)c(NC(=O)c2c(Cl)cccc2Cl)c1 — higher, 9.6%
- Cc1ccc(NC(=O)/C=C/c2ccccc2Cl)c(Br)c1 — higher, 19.1%
- CCN(CC)c1ccc(NC(=O)CCCOc2ccccc2)cc1 — lower, -5.8%
- NC(=O)c1c(NC(=O)c2cc(Cl)ccc2[N+](=O)[O-])sc2c1CCCC2 — lower, -9.7%
- Cc1[nH]c2ccccc2c1/C=C/c1nc2ccccc2c(=O)n1Cc1ccccc1 — lower, -5.8%
- O=C(NC12CC3CC(CC(C3)C1)C2)C1CC(=O)N(c2ccc(Br)cc2)C1 (configuration not stated) — higher, 7.6%
- O=C1C/C(=C/Nc2ccccc2)C(=O)N1 — higher, 5.8%
- COC(=O)c1c(NC(=O)CCCC(=O)O)sc2c1CCC(C)C2 (configuration not stated) — lower, -12.9%
- CCc1ccc(-c2nc3cc(NC(=O)c4ccc([N+](=O)[O-])c(C)c4)ccc3o2)cc1 — higher, -1.7%
- O=C1N=c2ccccc2=C1c1sc(Nc2cccc(Cl)c2Cl)nc1O — higher, 15.8%
- Cc1c(NC(=O)C(C)Oc2ccc(Cl)cc2Cl)c(=O)n(-c2ccccc2)n1C (configuration not stated) — higher, 0.3%
- O=c1[nH]cc(CN2CCOCC2)c(=O)[nH]1 — lower, -9.3%
- COc1ccccc1NC(=O)c1c(NC(=O)C(C)(C)C)sc2c1CCCCC2 — higher, -2%
- COc1ccccc1NC(=O)/C(=C\c1cccc([N+](=O)[O-])c1)NC(=O)c1cccs1 — higher, -4.9%
- Cc1ccc(NC(=O)COc2ccccc2)c([N+](=O)[O-])c1 — higher, -2.4%
- CC1=C(C(=O)OCCc2ccccc2)C(c2ccc(O)c([N+](=O)[O-])c2)NC(=O)N1 (configuration not stated) — higher, 5.4%
- COc1ccc(Cl)cc1/C=C(/C#N)c1nc2ccccc2[nH]1 — higher, -2.8%
- O=C1/C(=C\c2ccc(-c3cccc(Cl)c3)o2)SC(=S)N1CCS(=O)(=O)O — lower, -24.2%
- CC(=O)Nc1nonc1-c1nc2ccccc2n1Cc1ccc(C(C)(C)C)cc1 — higher, 52.2%
- O=C1C(=O)N(c2cccnc2)C(c2ccccc2[N+](=O)[O-])/C1=C(\O)c1ccc(Cl)cc1 (configuration not stated) — higher, 18.3%
- COc1ccc(NC2=Nc3cccc4cccc2c34)cc1 — lower, -16.9%
- CCOC(=O)C1=C(C)N=c2s/c(=C\c3ccc(OCC(=O)O)cc3)c(=O)n2C1c1ccccc1 (configuration not stated) — lower, -12.5%
- COc1ccc(Nc2nc(-c3ccc(Cl)c(Cl)c3)cs2)cc1 — higher, 13.7%
- Cc1ccc(CN2CCN(N=Cc3ccc(N(C)C)cc3)CC2)c(C)c1 — higher, -4.8%
- CCCCCc1nc2sc3c(c2c(=O)n1N)CCCC3 — lower, -6.1%
- CC(=O)Oc1ccc2c(C)c(C)c(=O)oc2c1C — higher, 7.3%
- Cc1ccc(-c2cc(C(=O)N/N=C/c3ccc(Br)cc3)[nH]n2)cc1 — higher, -5.2%
- O=S(=O)(N/N=C/c1cc(Cl)ccc1O)c1ccc(Cl)cc1 — higher, 11.9%
- CNc1nc(Nc2cccc([N+](=O)[O-])c2)nc(OCC(F)(F)F)n1 — lower, -28.1%
- O=C1C2C3c4ccccc4C(C(=O)O)(c4ccccc43)C2C(=O)N1c1cccc([N+](=O)[O-])c1 (configuration not stated) — lower, -7%
- CCc1ccccc1NC1=NS(=O)(=O)c2cc([N+](=O)[O-])ccc21 — higher, 2.5%
- COc1cc(/C=N\NC(=O)CNc2ccc(C)cc2)ccc1OCc1ccccc1 — higher, 0.3%
- O=C1C2C(C(=O)N1c1ccccc1Cl)C1C=CC2C12CC2 (configuration not stated) — higher, -1.2%
- CCOc1c(Br)cc(/C=C2\C(=O)NC(=O)N(c3ccc(OC)cc3)C2=O)cc1OC — higher, 10.1%
- Cc1ccc(C)c(NC(=O)C2C3C4CCC(C4)C23)c1 (configuration not stated) — lower, -7.2%
- O=C(N1CCOCC1)C(F)(F)C(F)(F)C(F)(F)C(F)(F)C(=O)N1CCOCC1 — higher, 6.7%
- O=C(CCc1ccccc1)NCc1ccccc1Cl — higher, -1.9%
- COc1ccccc1-c1nnc(NC(=O)Nc2ccc(Cl)c(Cl)c2)s1 — higher, 2.7%
- COc1ccc(N(CC(=O)N/N=C(\C)c2ccccc2)S(=O)(=O)c2ccccc2)cc1 — higher, -4%
- O=CNC(Nc1ccc(Cl)cc1Cl)C(Cl)(Cl)Cl (configuration not stated) — higher, -0.1%
- S=c1[nH]nc(-c2ccccc2Cl)n1C1CCCCC1 — lower, -32.4%
- CN(C)c1cc(N/N=C/c2ccc([N+](=O)[O-])cc2)nc(N(C)C)n1 — higher, 7.5%
- COc1ccccc1NC(=O)C(Cc1c[nH]c2ccccc12)NC(=O)Oc1ccccc1 (configuration not stated) — higher, 10.1%
- CC1=C(C(=O)OCC(C)C)C(c2ccsc2)C2=C(CCCC2=O)N1 (configuration not stated) — lower, -11.4%
- COc1ccc(-n2c(/C=C/N(C)C)c([N+](=O)[O-])c3ccc(O)c(COC(C)=O)c32)cc1 — higher, 2.6%
- CC(C)Oc1ccc(-c2nc3sc4c(c3c(=O)[nH]2)CCCC4)cc1 — lower, -6.9%
- COc1ccc(C(=O)Nc2ccc(C(N)=O)cc2)cc1[N+](=O)[O-] — higher, 13.2%
- Cc1ccc(CNC(=O)C23CC4CC(CC(C4)C2)C3)cc1 — higher, 10.4%
- COc1ccc(C(=O)NNC(=O)c2cccc(C)c2O)cc1OC — higher, -1.1%
- C/C(=C\c1ccccc1)C(=O)c1c(C)cc(C)[nH]c1=O — higher, 12.9%
- CCOC(=O)c1c(C)sc(Sc2ccc(Br)cc2[N+](=O)[O-])c1OC — lower, -9%
- COc1ccc(N(CC(=O)N2CCOCC2)S(C)(=O)=O)cc1 — higher, 7.1%
- CCN(CC)C(=O)C(=O)NNC(=O)COc1ccc(Cl)cc1 — lower, -6.7%
- COc1ccccc1-n1c(C)c(C(=O)O)c2cc(OC)c3ccccc3c21 — higher, 13.8%
- COc1ccc(-c2cc(C(=O)N3CCN(C)CC3)c3ccccc3n2)cc1OC — higher, 5.2%
